Experimental findings from ChEMBL document CHEMBL1938231 (J Med Chem, 2011) are described below.

Structures are written as SMILES.

In assay [1] the target is T1, Tyrosine-protein kinase JAK2 (Homo sapiens, UniProt O60674).
Assay [2] addresses T1, Tyrosine-protein kinase JAK2. Type of assay: cell-based.
Assay [3] shares this target. Type of assay: cell-based, Blood.
The target is the same in assay [4]. The conditions noted are these: baf3.

A word on the IC50: it is the concentration at which inhibition is half-maximal. Read a low IC50 as inhibition by little substance. Consider `CC(C)(C)NS(=O)(=O)c1ccc(-c2cc3c(N)ncc(C(=O)NCCO)c3s2)cc1`, for which, in assay [1], the IC50 was 8 nM.

`COCCNC(=O)c1cnc(N)c2cc(-c3ccc(S(=O)(=O)NC(C)(C)C)cc3)sc12`: the IC50 worked out at 3 nM in assay [1], 135 nM in assay [2], 3950 nM in assay [3] and 959 nM in assay [4].

The compound `Nc1ncc(C(=O)Nc2ccccc2)c2sc(-c3ccc(N4CCOCC4)cc3)cc12` came in with an IC50 in assay [1] of 72 nM. This counts as double-digit nanomolar.

Take `NC(=O)c1cnc(N)c2cc(-c3ccc(N4CCOCC4)cc3)sc12`: the half-maximal inhibitory concentration (IC50) was 19 nM in assay [1], 761 nM in assay [2], above 25000 nM in assay [3] and above 25000 nM in assay [4].

In the case of `CC(C)(C)NC(=O)c1cnc(N)c2cc(-c3ccc(N4CCOCC4)cc3)sc12`, the midpoint of inhibition in assay [1], the IC50, lay at 1170 nM.

For `CNC(=O)c1cnc(N)c2cc(-c3ccc(C)cc3)sc12`, the results for the half-inhibitory concentration (IC50) in assay [1] and in assay [4] were 27 nM and 12600 nM, respectively.

`CNC(=O)c1cnc(N)c2cc(-c3ccc(C(C)(C)C)cc3)sc12`: in assay [1], the half-maximal inhibitory concentration (IC50) stood at 10 nM.

Regarding `CNC(=O)c1cnc(N)c2cc(-c3ccccc3)sc12`, the IC50 in assay [1] was 58 nM.

Take `Nc1ncc(C(=O)NCc2ccccc2)c2sc(-c3ccc(N4CCOCC4)cc3)cc12`: in assay [1], it took 100 nM to reach half-maximal inhibition (IC50).

For `CC(C)(C)NS(=O)(=O)c1ccc(-c2cc3c(N)ncc(C(=O)NCCCN4CCOCC4)c3s2)cc1`, the concentration for half-maximal inhibition (IC50) in assay [1] came to 5 nM; in assay [4], 4720 nM.

For `CC(C)(C)NS(=O)(=O)c1ccc(-c2cc3c(N)ncc(C(=O)NCCN4CCCCC4)c3s2)cc1`, the IC50 in assay [1] came out at 5 nM; in assay [4], 2130 nM.

Regarding `CCNC(=O)c1cnc(N)c2cc(-c3ccc(N4CCOCC4)cc3)sc12`, in assay [1], it took 48 nM to reach half-maximal inhibition (IC50).

With `CN(C)CCNC(=O)c1cnc(N)c2cc(-c3ccc(S(=O)(=O)NC(C)(C)C)cc3)sc12`, the half-inhibitory concentration (IC50) in assay [1] came out at 8 nM; in assay [2] it was 515 nM; in assay [3], 7830 nM; in assay [4], 2400 nM.

On to `CC(C)(C)NS(=O)(=O)c1ccc(-c2cc3c(N)ncc(C(=O)NCCN4CCOCC4)c3s2)cc1`, for which the IC50 in assay [1] was 2 nM; in assay [2], 148 nM; in assay [3], 2190 nM; in assay [4], 1620 nM.

As for `CNC(=O)c1cnc(N)c2cc(-c3ccc(S(=O)(=O)NC(C)(C)C)cc3)sc12`, the half-inhibitory concentration (IC50) in assay [2] is 48 nM; in assay [3], 1480 nM; in assay [4], 1010 nM.

As to `CNC(=O)c1cnc(N)c2cc(-c3ccc(C(C)(C)C#N)cc3)sc12`, the half-maximal inhibitory concentration (IC50) was determined as 4 nM in assay [1] and 1370 nM in assay [4].
